PubChem BioAssay AID602310 (National Center for Advancing Translational Sciences (NCATS), 2012)
Screen size: about 410,000 compounds; about 310 (0.076%) were called active. Inconclusive results, whose numbers are uncertain, are shown with a selection of clear calls. The call rests on the fitted dose curve; in most records, active means well fitted curve in the direction sought with a large enough effect; inconclusive means small, poorly fitted or top-dose-only effect; inactive means flat fitted curve, though single readings scatter. Potencies beside an inconclusive call are fits to weak or partial responses and may not hold up.
Further: nearly all actives have a fitted effect of over 60% in size.
On the % scale 0 is the no-effect control and ±100 the full control effect; potency means the concentration at half of the fitted maximal effect; tags describe the fitted curve by direction and shape.
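Wherever activity, negative = active is given: hits raise eYFP signal because A3G escapes Vif-driven loss.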

Each compound was assayed against DNA dC->dU-editing enzyme APOBEC-3G (Homo sapiens) (UniProt Q9HC16) (assay: qHTS for Inhibitors of Vif-A3G Interactions: qHTS). Conditions: HeLa A3G-eYFP + Vif (tagged APOBEC3G with the HIV-1 protein that degrades it), YFP fluorescence, overnight; series mostly up to 46.1 µM; activity, negative = active: at the top concentration.
Chain of UniProt Q9HC16 (Q9HC16 whole entry, looked up): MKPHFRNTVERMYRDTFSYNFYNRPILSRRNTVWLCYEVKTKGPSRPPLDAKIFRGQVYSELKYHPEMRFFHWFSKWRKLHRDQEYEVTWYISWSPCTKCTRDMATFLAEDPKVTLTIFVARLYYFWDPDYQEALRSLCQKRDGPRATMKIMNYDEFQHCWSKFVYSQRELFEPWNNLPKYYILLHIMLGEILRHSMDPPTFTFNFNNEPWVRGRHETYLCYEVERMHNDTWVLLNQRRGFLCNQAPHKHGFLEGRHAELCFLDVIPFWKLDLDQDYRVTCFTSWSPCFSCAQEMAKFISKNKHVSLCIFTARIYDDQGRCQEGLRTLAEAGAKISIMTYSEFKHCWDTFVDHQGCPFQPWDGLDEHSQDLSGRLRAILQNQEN
Method in brief: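 Read-out is eYFP fluorescence (Ex 488/Em 500-530) from Vif-expressing HeLa A3G-eYFP cells; more signal means A3G escaped Vif-mediated degradation. Cells plated overnight, compound pinned in, incubated overnight at 37 deg C.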
In the case of `O=C(/C=C/c1cn(CC(O)CN2CCCCC2)c2ccccc12)c1cccs1` (stereo unspecified), the Potency is reported as inconclusive: 28.2 µM [inhibitor, single point]. `COc1cccc(C2=CC(c3cccc(OC)c3OC)n3nnnc3N2)c1` (stereo unspecified) was tested, and the Potency was inconclusive: 2.51 µM [inhibitor, single point]. In the case of `Cc1noc(C)c1CSc1nc2ccccc2c(=O)n1-c1ccccc1`, the Potency is reported as active: 3.55 µM. With `CC(=O)Oc1c(/C=C(\C#N)C(N)=O)[nH]c2ccccc12` the Potency was inconclusive: 22.4 µM [inhibitor, single point]. In the case of `CCc1ccccc1NC(=O)c1ccc2c(c1)N(Cc1cc(C)ccc1C)C(=O)c1ccccc1S2(=O)=O`, the “activity, negative = active” value is reported as inactive: 2.63%. With `COc1ccc(-c2ccc(C#N)c(SCC(=O)Nc3sc4c(c3C#N)CCC4)n2)cc1OC` the “activity, negative = active” value was inactive: -17.4%. `Cc1cc(O)c2c(c1O)C(=O)[C@]13C(=C2O)C(=O)[C@@H]2[C@@H](O)[C@H]1[C@@H]1[C@H](O)[C@H]3C(=O)C3=C(O)c4c(O)cc(C)c(O)c4C(=O)[C@]312` was tested, and the Potency was inconclusive: 5.62 µM [inhibitor, full curve, poor fit]. With `COc1ccc(OC)c(NC(=O)CSc2nc3ccccc3nc2N2CCCCC2)c1` the “activity, negative = active” value was inactive: -8.14%. For `Cc1cc(/C=C2\SC(=S)NC2=O)c(C)[nH]1`, the Potency was inconclusive: 28.2 µM [inhibitor, single point]. For `CCOC(=O)CN1C(=O)/C(=C/c2c(F)cccc2Cl)Oc2ccccc21`, the “activity, negative = active” value was inactive: -17.2%. For `Cc1cc(C)c(NC(=S)NCC2CCN(C(C)c3ccccc3)C2)c(C)c1` (stereo unspecified), the “activity, negative = active” value was inactive: 1.49%. With `OC(COc1ccccc1)CN1CCN(Cc2ccc3c(c2)OCO3)CC1` (stereo unspecified) the “activity, negative = active” value was inactive: 0.316%. In the case of `c1ccc(-c2cc3nc(NCc4cccs4)nc(NCc4ccc5occc5c4)c3s2)cc1`, the Potency is reported as inconclusive: 25.1 µM [inhibitor, single point]. For `CCCCN1C(=O)/C(=C/C=C2/CC(C)(C)CN2C)SC1=S`, the Potency was active: 3.55 µM. In the case of `Cc1ccc(C(=O)CSC2=C(C#N)C(c3ccco3)C3=C(CCCC3=O)N2)cc1` (stereo unspecified), the Potency is reported as inconclusive: 6.31 µM [inhibitor, full curve]. For `Cc1c(C(=O)OC2CCCC2)[nH]c2c1C(=O)CC(c1ccco1)C2` (stereo unspecified), the Potency was inconclusive: 0.355 µM [inhibitor, full curve, poor fit]. In the case of `COc1ccc(/C=N/NC(=O)c2[nH]c3ccc(C)cc3c2-c2ccccc2)c(C(=O)O)c1OC`, the Potency is reported as inconclusive: 17.8 µM [inhibitor, single point]. For `Cn1c(=O)c2c(nc(NCc3ccc4c(c3)OCO4)n2Cc2ccccc2)n(C)c1=O`, the Potency was inconclusive: 31.6 µM [inhibitor, single point]. `C=CCOc1ccc(C(=O)Nc2ccccc2C(=O)NCc2cccnc2)cc1` was tested, and the Potency was inconclusive: 7.08 µM [inhibitor, partial curve]. For `CCCCN(C(=O)c1ccc(-c2ccc(Cl)cc2)o1)c1c(N)n(CCCC)c(=O)[nH]c1=O`, the Potency was inconclusive: 35.5 µM [inhibitor, single point]. With `COc1ccc2[nH]cc(C(=O)CCl)c2c1` the Potency was inconclusive: 35.5 µM [inhibitor, single point]. For `COc1ccc(/C=N/NC(=O)c2c(C)nc3ccc(Cl)cn23)cc1OC`, the Potency was inconclusive: 10 µM [inhibitor, partial curve, poor fit]. With `CC1C/C(=C/c2ccncc2)C(=O)/C(=C/c2ccncc2)C1` (stereo unspecified) the Potency was inconclusive: 2.82 µM [inhibitor, partial curve, poor fit]. For `Cc1cc(N2CCCC2)ccc1/C=C1/C(=O)N(C)C(=S)N1C`, the Potency was inconclusive: 3.16 µM [inhibitor, full curve, poor fit]. For `CC(=O)Oc1ccc(OC(C)=O)c(SCCCCCCl)c1`, the Potency was inconclusive: 35.5 µM [inhibitor, single point]. In the case of `CCOC(=O)C1=C(Cc2ccc(OC)cc2)C(=O)c2ccccc2C1=O`, the Potency is reported as inconclusive: 11.2 µM [inhibitor, partial curve, poor fit]. For `COc1ccc(CNC(=O)c2nn(-c3ccccc3C)nc2CO)cc1`, the “activity, negative = active” value was inactive: 0.827%. In the case of `CC1(C(=O)NCc2cccs2)Cc2c(-c3ccc4c(c3)OCO4)ccnc2O1` (stereo unspecified), the Potency is reported as inconclusive: 1.26 µM [inhibitor, full curve, poor fit]. In the case of `O=C1CC(c2ccccc2)Cc2[nH]c(=O)c(-c3nc(-c4ccc(Cl)cc4)cs3)cc21` (stereo unspecified), the Potency is reported as inconclusive: 0.562 µM [inhibitor, full curve, poor fit]. For `Cc1nnsc1C(=O)N/N=C/c1ccc2ccccc2c1O`, the Potency was inconclusive: 10 µM [inhibitor, partial curve, poor fit]. `COc1ccc(-c2cc(C(F)(F)F)nc(SCC(=O)Nc3cc(C)on3)n2)cc1` was tested, and the Potency was inconclusive: 7.08 µM [inhibitor, partial curve, poor fit]. For `O=Cc1c[nH]c2ccccc12`, the “activity, negative = active” value was inactive: 1.22%. `Cc1ccc2nc(SCC(=O)Nc3ccccc3N3CCOCC3)c(C#N)cc2c1` was tested, and the Potency was inconclusive: 2.51 µM [inhibitor, full curve, poor fit]. `COc1cccc(C2=NOC(C(=O)NCc3ccccc3)C2)c1` (stereo unspecified) was tested, and the Potency was inconclusive: 10 µM [inhibitor, partial curve]. For `CS(=O)(=O)N1CCN(c2ccccc2NC(=O)c2ccc(Br)o2)CC1`, the “activity, negative = active” value was inactive: -0.993%. In the case of `CCCCN1/C(=C/c2ccc3ccccc3[n+]2CC)Sc2ccccc21`, the Potency is reported as inconclusive: 1.78 µM [inhibitor, partial curve, poor fit]. For `Cc1cc(SCC(=O)NCc2ccc(Cl)cc2)nc(=O)[nH]1`, the “activity, negative = active” value was inactive: -1.61%. `CN(CC(=O)Nc1ccc(F)cc1)C(=O)CCc1nc2sc3c(c2c(=O)[nH]1)CCCC3` was tested, and the Potency was inconclusive: 35.5 µM [inhibitor, single point]. With `S=C(NCCCc1cnc[nH]1)NCCCN(Cc1ccccc1)c1ccc(Br)cn1` the Potency was inconclusive: 22.4 µM [inhibitor, single point]. For `Cc1ccccc1S(=O)(=O)Cc1ccc(C(=O)N2CCN(c3cccc(Cl)c3)CC2)o1`, the Potency was inconclusive: 1.12 µM [inhibitor, full curve, poor fit]. For `Cn1cc(CN2CCC(C(=O)NC(c3ccc(F)cc3)c3ccc4ccccc4n3)CC2)c2ccccc21` (stereo unspecified), the “activity, negative = active” value was inactive: -7.04%.
